# Reference: PubChem BioAssay AID1745853 (National Center for Advancing Translational Sciences (NCATS), 2022)
# This is one part of the list. Shown are side measurements of this screen, not its main read-out; they come without a call.
# What was measured:
# Experiment in all cases: Primary Screen for Target Class Profiling of Small Molecule Inhibitors of Methyltransferases
# [1] = target: Glycine N-methyltransferase (Homo sapiens) (UniProt Q14749); conditions: purified enzyme, MTase-Glo SAH luminescence; measured here: GNMT inhibition; at 40 µM; stronger effect = lower value
# Outline: (§1)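 Each enzyme was reacted with SAM and its substrate, with compounds tested once at 40 uM; SAH formed was read by MTase-Glo luminescence.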
# [2] = target: Guanidinoacetate N-methyltransferase (Homo sapiens) (UniProt Q14353); conditions: purified enzyme, MTase-Glo SAH luminescence; measured here: GAMT inhibition; at 40 µM; stronger effect = lower value
# Outline: as §1
# [3] = target: Histamine N-methyltransferase (Homo sapiens) (UniProt P50135); conditions: purified enzyme, MTase-Glo SAH luminescence; measured here: HNMT inhibition; at 40 µM; stronger effect = lower value
# Outline: as §1
# [4] = target: Nicotinamide N-methyltransferase (Homo sapiens) (UniProt P40261); conditions: purified enzyme, MTase-Glo SAH luminescence; measured here: NNMT inhibition; at 40 µM; stronger effect = lower value
# Outline: as §1
# [5] = target: Phenylethanolamine N-methyltransferase (Homo sapiens) (UniProt P11086); conditions: purified enzyme, MTase-Glo SAH luminescence; measured here: PNMT inhibition; at 40 µM; stronger effect = lower value
# Outline: as §1
# On the % scale 0 is the no-effect control and ±100 the full control effect.
SMILES,"activity change, negative = inhibition [1] [%]","activity change, negative = inhibition [2] [%]","activity change, negative = inhibition [3] [%]","activity change, negative = inhibition [4] [%]","activity change, negative = inhibition [5] [%]"
CCC(C)NC(=O)c1ccc2c(=O)n(C(C)C)c3nn(CC(=O)Nc4ccccc4C)c(=O)n3c2c1 (stereo not given),0.12,3.7,0.563,-4.16,0.678
COC(=O)c1ccc(O[C@@H]2O[C@H](CO)[C@@H](O)[C@H](O)[C@H]2O)c(OC)c1,-0.434,-5.89,8.85,-18.8,2.11
O=c1c2ccccc2n2c(-c3ccc(F)c(F)c3)nnc2n1Cc1ccccc1,-4.03,-0.419,4.95,-6.5,-4.21
Cc1cc2[nH]c(=O)[nH]c2cc1S(=O)(=O)N1CCC(Cc2ccccc2)CC1,-1.34,0.78,-0.114,-14.9,-5.21
COc1ccc(Cl)cc1NC(=O)Cn1nc2n(CCC(C)C)c(=O)c3ccccc3n2c1=O,-3.54,-0.825,0.498,-6.25,-1.99
Cc1ccc(NC(=O)Cn2nc3n(C4CC4)c(=O)c4ccc(C(=O)NC(C)C)cc4n3c2=O)c(C)c1,-4.69,-1.89,-4.65,-6.69,-2.46
Cc1ccc(S(=O)(=O)c2ccc([N+](=O)[O-])o2)cc1,-3.2,-9.95,-4.28,-15.8,-10.8
OCC(CO)(CO)NCC(O)Cn1c2ccc(Cl)cc2c2cc(Cl)ccc21 (stereo not given),-47.6,-14.3,-48.7,-25.4,-41
CC(C)C(NS(=O)(=O)c1ccc2c(c1)oc(=O)n2C)C(=O)N1CCN(c2ccc(F)cc2)CC1 (stereo not given),0.026,4.89,1.98,5.64,-1.91
CCn1ncc(N2CCC(NC(=O)c3ccccc3)CC2)cc1=O,-2.77,-4.77,-2,-8.66,-1.16
Cc1cn[nH]c1,9.96,8.87,12.3,-6.33,-4.42
CCc1cc2c(cc3n2CC(C)(C(=O)NC2CCCCC2)N(c2ccc(C)c(C)c2)C3=O)s1 (stereo not given),-3.27,3.01,4,7.94,-0.574
O=C1NC2(CN([S+](=O)([O-])c3ccccc3)C2)Oc2ccccc21,-8.27,-2.97,-6.33,-21.8,-4.23
COc1ccc(Cl)cc1NC(=O)CCC1CCCN(C(=O)c2ccnn2C)C1 (stereo not given),-7.42,-9.43,-2.67,-13.3,-7.86
CN(C)C(=O)N1CCCn2nc(CNC(=O)Nc3cccc(C#N)c3)cc2C1,-4.36,-2.49,-2.34,-0.998,-1.69
CC(C)=CCO[C@H]1CCOC[C@H]1NC(=O)CCc1ccc(=O)[nH]n1,-1.62,-2.18,1.52,-0.189,0.021
Cc1ccc(C(=O)N2CCC(N3C(=O)C4(CCCC4)C3c3scnc3C)CC2)cn1 (stereo not given),-0.915,-1.31,0.232,-6.26,-3.81
